# Assay results published in PubChem BioAssay (NCATS).
# “And” between values parts separate entries of the source, which are not always exact repeats. Identical values can stand only once. The shares of active, inactive and inconclusive entries below differ from those in the screen. For some assays here: Where the call is inconclusive, the potency comes from a doubtful curve fit. The source made the active and inactive calls. Unless noted, the call rests on the fitted dose curve; in most records, active means well fitted curve in the direction sought with a large enough effect; inconclusive means small, poorly fitted or top-dose-only effect, or another doubt; inactive means no such curve, though single readings can be large; an effect the other way counts as inactive or inconclusive.
# Legend:
# [1] = Cell Viability - H-4-II-E (AID 543);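 further: cells exposed to compound for 40 hours; on the % scale 0 is the no-effect control and ±100 the full control effect; nearly all actives have a fitted effect of over 35% in size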
# Outline: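 qHTS, rat hepatoma H-4-II-E, 1500 cells/well; 40 hr compound exposure, 37 °C; CellTiter-Glo ATP luminescence after 20 min RT; AC50 by standard Hill fit.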
# [2] = Cell Viability - SH-SY5Y (AID 544); conditions: SH-SY5Y neuroblastoma cell viability; viability change, negative = cytotoxic: at 92.2 µM (top of the series);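 further: cells exposed to compound for 40 hours; 0% = DMSO alone and -100% = 100 µM tamoxifen; nearly all actives have a fitted effect of over 55% in size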
# Outline: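 SH-SY5Y, 1500 cells/well, 5 hr pre-incubation 37 °C; cpd 40 hr 37 °C; CellTiter-Glo 20 min RT; luminescence (ATP) read. qHTS concentration-response, Hill fit → AC50. Tamoxifen, doxorubicin as positive controls.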
# [3] = Cellular Toxicity (caspase-3) HepG2 (AID 654);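 further: cells exposed to compound for 16 hours before reading; 0% = DMSO alone and 100% = caspase signal from 100 µM tamoxifen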
# Outline: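 Luminescent Caspase-Glo 3/7 readout after 16 hr compound exposure of human hepatocellular carcinoma HepG2 cells at 37 °C; qHTS concentration-response, normalized DMSO = 0%, 100 uM tamoxifen = 100%; AC50 by standard Hill equation.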
# [4] = MultiTox-Fluor Cytotoxicity Assay - LYMP1-001 - Live Cells (AID 947); further: potency means the concentration at half of the fitted maximal effect
# [5] = MultiTox-Fluor Cytotoxicity Assay - LYMP1-002 - Dead Cells (AID 960); conditions: LYMP1-002 lymphoblastoid cells, dead-cell protease fluorescence; cytotoxicity (dead cells): at 46.1 µM (top of the series); further: potency means the concentration at half of the fitted maximal effect; nearly all actives have a fitted effect of over 60% in size
# Outline: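 Readout: fluorescence at 485/520 from cell-impermeant bis-AAF-R110 cleaved by proteases leaking from damaged cells. LYMP1-002 lymphoblastoid line, 16 hr compound treatment at 37 C, concentration-response in qHTS format; Hill-equation AC50 values.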
# [6] = Cell Viability - LYMP2-010 (AID 981);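 further: cells exposed to compound for 24 hours at 37 °C; on the % scale 0 is the no-effect control and ±100 the full control effect; nearly all actives have a fitted effect of over 55% in size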
# Outline: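 qHTS cytotoxicity, 1536-well: 2500 cells/well, 5 hr settle, 24 hr compound at 37 C, CellTiter-Glo 30 min RT, luminescence read. Decrease in ATP = toxicity; AC50 via standard Hill equation. Positive control tetraoctylammonium bromide.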
# [7] = molecular target: Estrogen receptor (Homo sapiens) (UniProt P03372); assay: qHTS assay for small molecule antagonists of estrogen receptor alpha signaling (AID 588513; active means well fitted curve in the direction sought with a large enough effect in the signal ratio, with a control signal flat, not every such curve was filed as active; inconclusive means small, poorly fitted or top-dose-only effect, or effect the other way, or a change in a side signal; inactive means no such curve, though single readings can be large or run the other way; the % refers to the signal ratio; further: on the % scale 0 is the no-effect control and ±100 the full control effect); conditions: ER-alpha-UAS-bla HEK293, beta-lactamase ratio, antagonist mode; activity, negative = inhibition: at 76.9 µM (top of the series) unless noted
# Sequence of UniProt P03372 (P03372 whole entry, looked up): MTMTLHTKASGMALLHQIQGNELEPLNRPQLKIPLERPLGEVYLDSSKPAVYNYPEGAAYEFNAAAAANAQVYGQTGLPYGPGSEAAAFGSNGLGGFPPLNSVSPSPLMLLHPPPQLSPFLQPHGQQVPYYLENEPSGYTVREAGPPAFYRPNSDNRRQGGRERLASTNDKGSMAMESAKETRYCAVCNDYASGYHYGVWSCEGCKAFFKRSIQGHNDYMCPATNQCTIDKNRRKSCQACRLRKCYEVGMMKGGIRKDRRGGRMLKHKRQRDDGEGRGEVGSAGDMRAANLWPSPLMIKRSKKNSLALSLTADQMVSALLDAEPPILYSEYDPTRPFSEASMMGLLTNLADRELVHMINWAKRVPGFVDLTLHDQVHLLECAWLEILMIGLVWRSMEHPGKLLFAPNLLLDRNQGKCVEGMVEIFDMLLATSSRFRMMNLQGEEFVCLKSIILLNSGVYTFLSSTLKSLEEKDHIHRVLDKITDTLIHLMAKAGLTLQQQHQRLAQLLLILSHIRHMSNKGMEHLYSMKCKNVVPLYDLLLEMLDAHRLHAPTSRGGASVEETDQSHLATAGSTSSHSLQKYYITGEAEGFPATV
# Outline: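 Antagonist mode: inhibition of 0.5 nM 17-beta-estradiol-driven beta-lactamase reporter in HEK 293 ER-alpha-UAS-bla cells, 18 h at 37C, CCF4 readout after 2 h at RT. Normalised to estradiol and DMSO; titration fitted to Hill.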
# [8] = molecular target: Bile acid receptor (Homo sapiens) (UniProt Q96RI1); assay: qHTS assay for small molecule antagonists of farnesoid X receptor signaling (AID 588526; calls by dose curve; further: on the % scale 0 is the no-effect control and ±100 the full control effect); conditions: HEK293T FXR-UAS-bla, beta-lactamase ratio, antagonist mode; activity change, negative = inhibition: at 76.7 µM (top of the series)
# Sequence of UniProt Q96RI1 (Q96RI1 whole entry, looked up): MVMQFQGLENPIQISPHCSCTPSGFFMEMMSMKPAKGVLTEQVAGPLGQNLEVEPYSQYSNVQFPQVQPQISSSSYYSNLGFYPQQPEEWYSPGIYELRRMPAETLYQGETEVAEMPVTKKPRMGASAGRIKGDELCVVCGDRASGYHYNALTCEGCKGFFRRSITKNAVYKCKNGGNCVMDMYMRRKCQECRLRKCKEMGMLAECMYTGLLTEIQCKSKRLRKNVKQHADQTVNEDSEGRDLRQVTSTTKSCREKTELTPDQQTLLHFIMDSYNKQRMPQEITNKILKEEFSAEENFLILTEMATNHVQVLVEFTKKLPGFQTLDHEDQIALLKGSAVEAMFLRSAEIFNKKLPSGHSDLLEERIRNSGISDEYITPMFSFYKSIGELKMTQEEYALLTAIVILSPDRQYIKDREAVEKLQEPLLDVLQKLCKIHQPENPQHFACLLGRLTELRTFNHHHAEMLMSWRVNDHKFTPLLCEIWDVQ
# Outline: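 Beta-lactamase reporter antagonist mode: HEK293T FXR-UAS-bla cells, titrated compound, CDCA stimulation, 16 h 37 C, CCF4 dye 2 h RT. Data normalized to CDCA 50 uM and DMSO; Hill-fit IC50.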
# [9] = molecular target: Bile acid receptor (Homo sapiens) (UniProt Q96RI1); assay: qHTS assay for small molecule agonists of farnesoid X receptor signaling (AID 588527; calls by dose curve;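 further: 0% = vehicle basal and 100% = reference agonist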); conditions: HEK293T FXR-UAS-bla, beta-lactamase ratio, 16 h; activation: stronger effect = higher value
# Outline: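 FXR-UAS-bla HEK293T cells (10% dialyzed FBS) preincubated 5-7 h at 37 C, then compounds at up to 92 uM for 16 h at 37 C. CCF4 beta-lactamase read-out after 2 h RT. Normalized to chenodeoxycholic acid (100 uM) and DMSO; Hill fit gave EC50 and efficacy.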
# [10] = molecular target: Peroxisome proliferator-activated receptor delta (Homo sapiens) (UniProt Q03181); assay: qHTS assay for small molecule antagonists of peroxisome proliferator-activated receptor delta signaling (AID 588535; active means well fitted inhibition curve with a large enough effect in the signal ratio, with a control signal flat, not every such curve was filed as active; inconclusive means small, poorly fitted or top-dose-only effect, or effect the other way, or a change in a side signal; inactive means no such curve, though single readings can be large or run the other way; the % refers to the signal ratio); conditions: HEK293T PPARd-UAS-bla, beta-lactamase FRET ratio, 18 h; activity change, negative = inhibition: at 76.7 µM (top of the series) unless noted
# Sequence of UniProt Q03181 (Q03181 whole entry, looked up): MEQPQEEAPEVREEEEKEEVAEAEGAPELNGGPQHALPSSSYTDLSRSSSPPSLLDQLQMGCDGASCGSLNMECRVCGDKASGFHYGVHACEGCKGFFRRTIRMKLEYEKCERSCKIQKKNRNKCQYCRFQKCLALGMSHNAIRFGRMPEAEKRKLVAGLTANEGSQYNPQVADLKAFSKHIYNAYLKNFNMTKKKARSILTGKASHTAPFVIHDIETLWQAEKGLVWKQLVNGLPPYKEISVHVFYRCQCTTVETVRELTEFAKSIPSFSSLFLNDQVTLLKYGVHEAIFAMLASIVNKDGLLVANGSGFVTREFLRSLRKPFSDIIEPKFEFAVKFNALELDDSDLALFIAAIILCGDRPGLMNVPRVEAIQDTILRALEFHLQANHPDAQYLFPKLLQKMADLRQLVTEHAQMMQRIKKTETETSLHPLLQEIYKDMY
# Outline: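 Antagonist-mode qHTS using GeneBLAzer PPAR-delta-UAS-bla HEK293T cells; compound exposure 18 hrs at 37 C over a titration. Ratiometric CCF4 fluorescence at 460/530 nm; concentration-response points fitted to the Hill equation.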
# [11] = molecular target: Retinoic acid receptor RXR-alpha (Homo sapiens) (UniProt P19793); assay: qHTS assay for small molecule agonists of retinoid X receptor alpha signaling (AID 588544; calls by dose curve;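 further: 0% = DMSO basal wells and 100% = reference agonist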); conditions: HEK293T RXRa-UAS-bla, beta-lactamase reporter, 18 h; activation: at 76.7 µM (top of the series) unless noted
# Sequence of UniProt P19793 (P19793 whole entry, looked up): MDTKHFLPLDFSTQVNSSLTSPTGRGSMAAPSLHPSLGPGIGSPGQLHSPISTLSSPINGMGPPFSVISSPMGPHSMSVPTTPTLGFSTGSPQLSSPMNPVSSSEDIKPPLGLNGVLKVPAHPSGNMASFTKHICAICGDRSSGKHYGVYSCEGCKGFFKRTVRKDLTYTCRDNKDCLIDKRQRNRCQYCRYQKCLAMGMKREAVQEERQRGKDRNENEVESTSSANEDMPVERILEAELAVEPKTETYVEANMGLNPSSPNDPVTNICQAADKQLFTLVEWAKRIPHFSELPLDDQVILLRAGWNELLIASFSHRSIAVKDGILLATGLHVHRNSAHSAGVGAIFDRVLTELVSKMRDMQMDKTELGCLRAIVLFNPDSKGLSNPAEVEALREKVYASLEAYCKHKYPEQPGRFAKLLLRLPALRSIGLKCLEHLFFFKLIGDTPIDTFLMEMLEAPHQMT
# [12] = molecular target: Thyroid hormone receptor beta (Homo sapiens) (UniProt P10828); assay: qHTS assay for small molecule agonists of thyroid hormone receptor beta signaling (AID 588545; calls by dose curve); conditions: TR-UAS-bla GripTite HEK 293, beta-lactamase ratio, agonist mode, 18 h; activation: at 76.7 µM, percent of T3 response, DMSO as zero
# Sequence of UniProt P10828 (P10828 whole entry, looked up): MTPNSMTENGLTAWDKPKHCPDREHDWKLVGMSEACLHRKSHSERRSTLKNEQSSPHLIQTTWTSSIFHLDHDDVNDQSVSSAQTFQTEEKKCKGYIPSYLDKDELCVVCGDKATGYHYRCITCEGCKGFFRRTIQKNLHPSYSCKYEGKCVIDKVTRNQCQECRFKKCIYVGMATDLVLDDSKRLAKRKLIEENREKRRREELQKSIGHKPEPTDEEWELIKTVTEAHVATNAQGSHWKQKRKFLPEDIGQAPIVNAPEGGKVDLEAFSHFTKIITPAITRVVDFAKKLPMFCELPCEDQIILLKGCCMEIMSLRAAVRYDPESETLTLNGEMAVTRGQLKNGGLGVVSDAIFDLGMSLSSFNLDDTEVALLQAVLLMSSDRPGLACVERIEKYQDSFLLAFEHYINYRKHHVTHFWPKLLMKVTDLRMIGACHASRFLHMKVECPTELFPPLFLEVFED
# Outline: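 Cells (2500/well) were seeded, incubated 4 hrs at 37 C, dosed with a compound series, incubated 18 hrs, loaded with CCF4 dye for 2 hrs at RT, then read for fluorescence. Data were scaled between DMSO (0%) and 10 nM T3 (100%).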
# [13] = molecular target: Retinoic acid receptor RXR-alpha (Homo sapiens) (UniProt P19793); assay: qHTS assay for small molecule antagonists of retinoid X receptor alpha signaling (AID 588546; active means well fitted inhibition curve with a large enough effect in the signal ratio, with a control signal flat, not every such curve was filed as active; inconclusive means small, poorly fitted or top-dose-only effect, or effect the other way, or a change in a side signal; inactive means no such curve, though single readings can be large or run the other way; the % refers to the signal ratio;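 further: cells stimulated with 9-cis-retinoic acid as agonist; on the % scale 0 is the no-effect control and ±100 the full control effect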); conditions: HEK293T RXRa-UAS-bla, beta-lactamase ratio, antagonist mode
# Outline: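 Beta-lactamase reporter inhibition, read as CCF4 fluorescence ratio (ex 405, em 460/530 nm) after 2 h at RT. HEK293T UAS-bla cells, 2500/well, were stimulated with 9-cis-RA at 500 or 100 nM final alongside test compound for 18 h at 37 C.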
# [14] = qHTS assay for small molecule agonists of the antioxidant response element (ARE) signaling pathway (AID 651741; active means well fitted activation curve with a large enough effect in the signal ratio; inconclusive means small, poorly fitted or top-dose-only effect, or effect the other way, or a change in a side signal; the % refers to the signal ratio; further: potency means the concentration at half of the fitted maximal effect; on activation: % of control where 0% means no effect); conditions: HepG2 ARE-bla reporter, beta-lactamase FRET ratio, 16 h; activation: at 96 µM (top of the series) unless noted
# Outline: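 Agonist activity is measured as ARE-driven beta-lactamase expression in a stable HepG2 reporter line, using 16 h compound treatment at 37 C and a FRET substrate fluorescence readout after 2 h.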
# [15] = qHTS assay to identify small molecules that stimulate interleukin-8 (IL-8) secretion (AID 651758; active means well fitted activation curve with a large enough effect in the signal ratio; inconclusive means small, poorly fitted or top-dose-only effect, or effect the other way, or a change in a side signal; the % refers to the signal ratio; further: 0% is about no effect); conditions: HTRF ratio (665/615); activation: at 92.2 µM (top of the series)
# Outline: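 Secreted IL-8 measured homogeneously by TR-FRET (two labelled anti-IL-8 antibodies, 1-3 h at room temperature) after a 16 h, 37 C compound treatment of THP-1 cells at 2000 cells/well.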
# [16] = molecular target: Voltage-gated inwardly rectifying potassium channel KCNH2 (Homo sapiens) (UniProt Q12809); assay: qHTS Assay for Small Molecule Inhibitors of the Human hERG Channel Activity (AID 588834); conditions: U2OS BacMam hERG, FluxOR thallium flux fluorescence; at 92.2 µM (top of the series);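 further: top concentration of the series differs between compounds; on the % scale 0 is the no-effect control and ±100 the full control effect; lower thallium flux fluorescence means stronger hERG block; nearly all actives have a fitted effect of over 50% in size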
# Sequence of UniProt Q12809 (Q12809 whole entry, looked up): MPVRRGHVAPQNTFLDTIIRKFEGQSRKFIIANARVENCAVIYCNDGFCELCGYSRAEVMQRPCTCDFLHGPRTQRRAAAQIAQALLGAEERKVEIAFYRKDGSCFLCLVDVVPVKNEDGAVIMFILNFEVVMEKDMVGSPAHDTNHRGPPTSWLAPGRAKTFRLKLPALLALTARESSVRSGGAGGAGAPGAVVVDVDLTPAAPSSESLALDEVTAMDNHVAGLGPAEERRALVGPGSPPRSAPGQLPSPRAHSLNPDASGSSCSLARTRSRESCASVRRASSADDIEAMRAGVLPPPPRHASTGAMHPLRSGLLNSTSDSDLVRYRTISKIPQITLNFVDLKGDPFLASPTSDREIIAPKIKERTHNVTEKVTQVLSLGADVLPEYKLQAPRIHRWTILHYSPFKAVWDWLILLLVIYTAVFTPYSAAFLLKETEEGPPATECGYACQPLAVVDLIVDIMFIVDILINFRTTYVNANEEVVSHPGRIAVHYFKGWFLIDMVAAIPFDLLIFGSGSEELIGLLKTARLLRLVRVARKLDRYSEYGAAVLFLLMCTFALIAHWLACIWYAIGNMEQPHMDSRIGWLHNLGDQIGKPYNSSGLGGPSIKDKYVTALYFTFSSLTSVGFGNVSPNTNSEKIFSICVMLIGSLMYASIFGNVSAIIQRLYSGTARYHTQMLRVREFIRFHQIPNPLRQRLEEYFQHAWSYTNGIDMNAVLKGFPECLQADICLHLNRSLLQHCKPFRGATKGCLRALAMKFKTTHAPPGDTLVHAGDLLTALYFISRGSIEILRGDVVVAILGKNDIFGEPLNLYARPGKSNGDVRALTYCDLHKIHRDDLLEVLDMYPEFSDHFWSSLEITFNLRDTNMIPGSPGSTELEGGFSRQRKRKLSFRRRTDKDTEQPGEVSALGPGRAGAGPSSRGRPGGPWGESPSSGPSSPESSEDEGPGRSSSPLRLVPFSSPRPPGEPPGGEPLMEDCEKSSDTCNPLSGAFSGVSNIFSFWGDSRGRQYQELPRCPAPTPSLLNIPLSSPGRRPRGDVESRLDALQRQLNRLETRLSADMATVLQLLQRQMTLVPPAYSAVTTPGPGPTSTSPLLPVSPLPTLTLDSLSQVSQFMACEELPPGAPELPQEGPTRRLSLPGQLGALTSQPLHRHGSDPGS
# Outline: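 hERG block measured as reduced thallium-dye (FluxOR) fluorescence after stimulation buffer addition, read over 2 min. Cells were hERG-BacMam-transduced U2OS exposed to compound ~10 min […]; concentration-response fitted with Hill equation for AC50.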
# [17] = molecular target: Tumor necrosis factor (Homo sapiens) (UniProt P01375); assay: qHTS assay to identify small molecules that stimulate Tumor Necrosis Factor-alpha (TNF-alpha) secretion (AID 651757; active means well fitted curve in the direction sought with a large enough effect in the signal ratio; inconclusive means small, poorly fitted or top-dose-only effect, or a change in a side signal; inactive means no such curve, though single readings can be large or run the other way; the % refers to the signal ratio; further: 0% is about no effect); conditions: Human cells, HTRF 665/615 ratio; activation (TNF-alpha secretion): at 92.2 µM (top of the series)
# Sequence of UniProt P01375 (P01375 whole entry, looked up): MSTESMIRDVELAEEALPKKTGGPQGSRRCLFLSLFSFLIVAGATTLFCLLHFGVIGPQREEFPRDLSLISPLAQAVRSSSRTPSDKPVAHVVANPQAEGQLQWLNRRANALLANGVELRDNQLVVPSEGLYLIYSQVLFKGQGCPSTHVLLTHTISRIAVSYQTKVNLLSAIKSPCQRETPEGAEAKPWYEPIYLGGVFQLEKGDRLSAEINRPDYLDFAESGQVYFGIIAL
# Outline: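 THP-1 cells, 3000/well; compound 17 hrs, 37 C; add cryptate/XL665 anti-TNF-alpha antibody pair; 3 hr RT; TR-FRET (HTRF) read of secreted TNF-alpha. Quantitative HTS format.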
# Tags describe the fitted curve by direction and shape.
smiles,measurement,setting,value
Oc1ccc(Cl)cc1Cl,Potency,[1],inactive
same,"viability change, negative = cytotoxic",[2],inactive: -1.11%
same,Potency,[3],inactive
same,Potency,[4],"inconclusive: 0.0079 µM [rising, full curve, poor fit]"
same,Potency,[5],"inconclusive: 10 µM [cytotoxic, partial curve, poor fit]"
same,Potency,[6],inactive
same,Potency,[7],inactive
same,Potency,[8],inactive
same,activation,[9],inactive: -2.46% and inactive: -2.63%
same,"activity change, negative = inhibition",[10],inconclusive: -11.7%
same,activation,[11],inconclusive: 45.8%
same,activation,[12],inactive: -3.81% and inactive: -2.93%
same,max response,[13],inactive: -2.36% and inactive: -1.51%
same,Potency,[14],"inconclusive: 66.8 µM [activator, partial curve, poor fit] and inactive"
same,activation,[15],inconclusive: 11.8%
CCCC(=O)Cl,Potency,[1],inactive
same,"activity change, negative = inhibition",[10],inconclusive: -33.3%
same,"activity change, negative = inhibition",[16],inactive: -1.05%
same,activation,[14],inconclusive: 4.05%
same,Potency,[15],inactive
FC(Cl)(Cl)Cl,"viability change, negative = cytotoxic",[2],inactive: -7.64%
same,Potency,[5],"inconclusive: 25.1 µM [cytotoxic, partial curve, poor fit]"
same,max response,[13],inactive: -1.5%
same,Potency,[14],inactive
same,Potency,[17],inactive
same,activation,[15],inconclusive: 29%
